# Laboratory results as given in PubChem BioAssay AID485281 (National Center for Advancing Translational Sciences (NCATS), 2010).
# Hit rate of the full screen: of about 350,000 compounds, about 260 (0.074%) were called active. The inconclusive results got no clear call from the source; some entries with a clear call stand among them for comparison. The call rests on the fitted dose curve; in most records, active means well fitted inhibition curve with a large enough effect; inconclusive means small, poorly fitted or top-dose-only effect; inactive means no such curve, though single readings can be large or run the other way. Potencies of inconclusive entries are doubtful fits and often do not repeat.
# Molecular target: Ferritin light chain (Equus caballus) (UniProt P02791)
# Test: qHTS Assay for Identification of Novel General Anesthetics; further: nearly all actives have a fitted effect of over 20% in size
# Details: apoferritin/1-aminoanthracene competitive binding, fluorescence; series mostly up to 77.5 µM
# Summary of the method: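 Horse-spleen apoferritin (10 uM) in 50% saturated 1-aminoanthracene in PBS was incubated 10 min at room temperature with compound. Fluorescence (ex 380, em 535 nm) was normalized to free and bound 1-AMA, with concentration-response fitted by a four-parameter Hill equation.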
# Potency means the concentration at half of the fitted maximal effect; tags describe the fitted curve by direction and shape.
# UniProt P02791, sequence (P02791 whole entry, looked up): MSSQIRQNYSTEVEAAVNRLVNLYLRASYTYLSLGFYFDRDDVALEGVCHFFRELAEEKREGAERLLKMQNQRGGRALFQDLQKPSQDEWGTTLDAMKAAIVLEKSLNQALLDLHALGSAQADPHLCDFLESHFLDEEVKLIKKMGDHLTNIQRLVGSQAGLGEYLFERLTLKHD
row,SMILES,Potency
1,CN(C)S(=O)(=O)c1cccc(C(=O)N=C2N=C3C=CC(Cl)=CN3Cc3ccccc32)c1,inactive
2,O=C1c2ccsc2SCCN1Cc1cccc(Cl)c1,"inconclusive: 14.1 µM [inhibitor, partial curve]"
3,Nc1nnc(N2CCCCCC2)s1,"inconclusive: 25.1 µM [inhibitor, single point]"
4,CCCCC(=O)NC(Nc1nc(C2CC2)cs1)(C(=O)OCC)C(F)(F)F (stereo not given),"inconclusive: 44.7 µM [inhibitor, single point]"
5,CCCn1c2ccccc2c2cnn(CC(=O)NCCCN(Cc3ccccc3)C(C)C)c(=O)c21,"inconclusive: 11.2 µM [inhibitor, partial curve]"
6,CC(C)COc1ccc(CNC(=S)N/N=C/c2ccc([N+](=O)[O-])cc2)cc1,"inconclusive: 25.1 µM [inhibitor, partial curve]"
7,O=C(NCc1ccc(Cl)cc1)c1cccc2c1C(=O)N(CC1CCCO1)C2 (stereo not given),"inconclusive: 28.2 µM [inhibitor, single point]"
8,O=C(OCC1OC(n2ncc(=O)[nH]c2=O)C(OC(=O)c2ccccc2)C1OC(=O)c1ccccc1)c1ccccc1 (stereo not given),"inconclusive: 28.2 µM [inhibitor, partial curve]"
9,COc1ccc(CC(=O)OCC(=O)Nc2ccc(Cl)cn2)cc1,"inconclusive: 12.6 µM [inhibitor, partial curve]"
10,CC1CCC(N2CCN(c3ccc([N+](=O)[O-])cc3)CC2)CC1 (stereo not given),"inconclusive: 31.6 µM [inhibitor, partial curve]"
11,CC(C)(C)c1ccc(-n2nc(C#N)c(Cl)cc2=O)cc1,"inconclusive: 20 µM [inhibitor, partial curve]"
12,Cc1ccc(C(=O)NCCSc2ccc(Cl)cc2)cc1S(=O)(=O)Nc1ccccc1,inactive
13,COc1cc(/C=C2\C(=N)N3N=C(N4CCOCC4)SC3=NC2=O)ccc1OC(=O)c1ccccc1,"inconclusive: 22.4 µM [inhibitor, partial curve]"
14,CCCCCCSc1nnc(N)s1,"inconclusive: 50.1 µM [inhibitor, single point]"
15,COc1ccc(C2/C=C\CN(CC(C)C)C(C)C(=O)N2Cc2ccc(F)cc2)cc1 (stereo not given),inactive
16,O=C(NCC(c1ccco1)S(=O)(=O)c1cccs1)c1ccc(C(F)(F)F)cc1 (stereo not given),inactive
17,CCOC(=O)Cn1nnnc1CN(Cc1cccs1)Cc1cc2cc(C)cc(C)c2[nH]c1=O,"inconclusive: 11.2 µM [inhibitor, single point]"
18,COc1ccc(NS(=O)(=O)c2cc3c(cc2C)N(C)CCO3)cc1,"inconclusive: 15.8 µM [inhibitor, partial curve]"
19,CCCCOC(=O)C1[C@H]2C(=O)N(Cc3cccs3)C[C@]23C=C[C@H]1O3 (stereo not given in full),"inconclusive: 39.8 µM [inhibitor, partial curve, poor fit]"
20,Cc1ccc(C(=O)C(OC(=O)CCC(=O)Nc2cccc(C)c2)c2ccccc2)cc1 (stereo not given),"inconclusive: 39.8 µM [inhibitor, partial curve]"
21,Cc1ccc(-c2csc3nc(CN(C)Cc4ccccc4)[nH]c(=O)c23)cc1,"inconclusive: 7.08 µM [inhibitor, partial curve]"
22,O=[N+]([O-])c1ccc(N2CCCCCC2)c(S(=O)(=O)N2CCCCC2)c1,"inconclusive: 35.5 µM [inhibitor, partial curve]"

row,SMILES,Potency
1,CC1CCC(C(C)C)C(OC(=O)COC(=O)c2cc(O)ccc2N)C1 (stereo not given),inactive
2,CN(C)/C=C/C(=O)c1ccn(S(=O)(=O)c2ccccc2)c1,inactive
3,COc1ccccc1OCCOc1ccc(C(=O)c2ccccc2)cc1,"inconclusive: 28.2 µM [inhibitor, single point]"
4,CCOC(=O)C1=CCN(Cc2ccccc2)CC1,inactive
5,COc1ccccc1NC(=O)c1c(NC(=O)c2cccs2)sc2c1CCC(C(C)(C)C)C2 (stereo not given),inactive
6,CC1Cc2ccccc2N1Cc1nc2scc(-c3cccs3)c2c(=O)[nH]1 (stereo not given),"inconclusive: 28.2 µM [inhibitor, partial curve, poor fit]"
7,O=C(/C=C/Nc1ccccc1F)c1cccs1,inactive
8,COC(=O)c1ccc(COC(=O)c2ccc(N(C)C)cc2)cc1,inactive
9,CCc1ccc(C(=O)c2cn(Cc3ccccc3)c3cc(OC)c(OC)cc3c2=O)cc1,"inconclusive: 3.55 µM [inhibitor, full curve]"
10,CCc1nc(NC(C)(C)C)c2cnn(-c3ccccc3)c2n1,"inconclusive: 25.1 µM [inhibitor, partial curve]"
11,CCOc1ccc(C(=O)NCC(=O)OCC(=O)N2C(C)CCCC2C)cc1 (stereo not given),"inconclusive: 5.62 µM [inhibitor, partial curve]"
12,O=C(/C=C/c1cc(Br)ccc1F)Nc1cccnc1,"inconclusive: 56.2 µM [inhibitor, single point]"
13,COC(=O)C1=C(C(=O)OC)[C@@H]2N(Cc3ccccc3)c3ccccc3[C@@]23C[C@@H](C(=O)OC)N(C(=O)COCc2ccccc2)C3=N1,"inconclusive: 25.1 µM [inhibitor, partial curve, poor fit]"
14,Cc1ccc(/C=C2\SC(=S)N(CCC(=O)NNC(=O)c3cccc(O)c3)C2=O)cc1,"inconclusive: 11.2 µM [inhibitor, partial curve]"
15,CN(C)S(=O)(=O)c1ccc(NC(=O)/C=C/c2ccccc2Cl)cc1,"inconclusive: 35.5 µM [inhibitor, single point]"
16,CCc1nc(SCC(=O)N2CCCCC2)c2c(=O)n(C)c(=O)n(C)c2n1,"inconclusive: 39.8 µM [inhibitor, partial curve]"
17,C/C(CCc1ccc2c(c1)OCO2)=N\N=C(/N)SC1CC(=O)N(c2ccccc2F)C1=O (stereo not given),"inconclusive: 25.1 µM [inhibitor, partial curve]"
18,CC(=O)c1cccc(OCc2cc(C(=O)N3CCSCC3)no2)c1,"inconclusive: 22.4 µM [inhibitor, partial curve]"
19,CCN1CCCC1CN(Cc1cc2ccc(C)cc2[nH]c1=O)C(=S)Nc1ccc(F)cc1 (stereo not given),inactive
20,CC(=O)Nc1ccc(S(=O)(=O)N2CCC(c3nc4ccc(C)cc4[nH]3)CC2)cc1,inactive
21,COc1ccccc1C1/C(=C(/O)c2ccc(C)cc2)C(=O)C(=O)N1CC(C)O (stereo not given),inactive
22,O=C(Oc1ccc(Cl)c2cccnc12)N1CCCCC1,"inconclusive: 28.2 µM [inhibitor, partial curve]"

row,SMILES,Potency
1,COc1cc(/C=N/NC(=O)c2ccc3c(c2)OCCO3)cc(Br)c1O,"inconclusive: 11.2 µM [inhibitor, partial curve]"
2,Cc1ccc(CNC(=O)C2CC(c3cccc([N+](=O)[O-])c3)=NO2)o1 (stereo not given),"inconclusive: 35.5 µM [inhibitor, partial curve]"
3,CCOc1cc(C(=S)N2CCOCC2)ccc1OS(=O)(=O)c1ccc(C)cc1,"inconclusive: 15.8 µM [inhibitor, partial curve]"
4,CCCNC(=O)OCCC12CC3CC(CC(C3)C1)C2,"inconclusive: 15.8 µM [inhibitor, partial curve]"
5,Cn1ncc(Cl)c1C(=O)NC1C2CC3CC(C2)CC1C3 (stereo not given),"inconclusive: 14.1 µM [inhibitor, partial curve]"
6,Cc1ccc2c(=O)cc(C(F)F)oc2c1,"inconclusive: 35.5 µM [inhibitor, partial curve, poor fit]"
7,Nc1cc(C(F)(F)F)ccc1Nc1ccccc1,"inconclusive: 14.1 µM [inhibitor, partial curve]"
8,COC(=O)C1=CN(C(C)c2ccccc2)C=C(C(=O)OC)C1c1cc(OC)c(OC)c(OC)c1 (stereo not given),inactive
9,FC(F)(F)c1cccc(NC(=S)NCc2ccccc2)c1,"inconclusive: 31.6 µM [inhibitor, partial curve]"
10,O=C(Nc1ccc(NC(=O)C2CCCCC2)nc1)c1ccccn1,"inconclusive: 28.2 µM [inhibitor, partial curve]"
11,Cc1ccc(NC(=O)CCSCCC(=O)Nc2ccc(C)c(C)c2)cc1C,"inconclusive: 35.5 µM [inhibitor, partial curve]"
12,CCc1c(C(C)S(=O)(=O)c2ccc(C)cc2)[nH]c(=O)n1-c1ccc(OC(F)(F)F)cc1 (stereo not given),"inconclusive: 12.6 µM [inhibitor, partial curve]"
13,CC(NC(=O)COC(=O)[C@@H]1CCCN1S(=O)(=O)c1ccccc1F)C12CC3CC(CC(C3)C1)C2 (stereo not given in full),"inconclusive: 56.2 µM [inhibitor, single point]"
14,COc1ccc(OC)c(C2=Nn3c(nnc3-c3ccccc3C)SC2)c1,"inconclusive: 39.8 µM [inhibitor, partial curve]"
15,Cc1cccc(C2c3[nH]c4ccccc4c3CCN2C(=O)c2cc(CC(C)C)[nH]c(=O)n2)n1 (stereo not given),"inconclusive: 35.5 µM [inhibitor, partial curve]"
16,COc1ccc(CC(=O)OC(C)C(=O)c2ccc(C)cc2)cc1 (stereo not given),"inconclusive: 28.2 µM [inhibitor, partial curve]"
17,N#Cc1c(/N=C/C=C/c2ccccc2)sc2c1CCCC2,"inconclusive: 25.1 µM [inhibitor, partial curve]"
18,COc1ccccc1NC(=O)N1CCOc2ccccc21,"inconclusive: 8.91 µM [inhibitor, partial curve]"
19,Cc1ccc(CNC(=O)c2ccc(CSCc3c(F)cccc3Cl)o2)cc1,inactive
20,CCC(C)(c1nnnn1-c1c(C)cccc1C)N(N=O)c1ccccc1Cl (stereo not given),"inconclusive: 22.4 µM [inhibitor, partial curve]"
21,Fc1ccc(CSc2ncnc3ccccc23)cc1,"inconclusive: 28.2 µM [inhibitor, partial curve]"
